PubChem BioAssay AID1347417 (National Center for Advancing Translational Sciences (NCATS), 2020)
Screen size: about 120,000 compounds; about 5,300 (4.4%) were called active. Inconclusive means that the source gave no clear call. Such entries were picked first, then a sample of the others. Calls come from the whole dose curve; as a rule, active = well fitted inhibition curve with a large enough effect; inconclusive = small, poorly fitted or top-dose-only effect; inactive = no such curve, though single readings can be large or run the other way. Where the call is inconclusive, the potency comes from a doubtful curve fit.

Test: qHTS Primary assay for Inhibitors of Plasmodium falciparum Dd2 growth in vitro; note: nearly all actives have a fitted effect of over 65% in size;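 for activity, negative = inhibition: plate controls were DMSO vehicle for no effect and reference drug for full effect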
Details: P. falciparum Dd2 growth, SYBR Green, 72 h; activity, negative = inhibition: at 28.9 µM (top of the series) unless noted; series mostly up to 28.9 µM
In short: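 Infected erythrocytes (Dd2, 0.3% parasitemia, 2.5% hematocrit final) are added to compound in RPMI-1640/Albumax II medium, grown 72 h at 37C in low oxygen, then lysed with saponin/Triton-X containing SYBR Green and read by fluorescence.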
Potency is the fitted concentration of half-maximal effect; tags give direction and shape of the fitted curve.

Compound	Potency	activity, negative = inhibition
Cc1cc(C)c([S+](=O)([O-])c2nnn3c2nc(N2CCC(F)CC2)c2ccccc23)c(C)c1	active: 11.2 µM	
CC1=C[C@@H](CN(C)CCO)[C@H](C(C)C)C[C@H]1Cc1nnc(-c2ccc(N(C)C)cc2)o1	active: 2.51 µM	
Cc1ncc2c(n1)C[C@@H]1CC[C@H]2N1C(=O)c1cccs1	inactive	
Cc1cccc(OCCc2noc(C3CN(C4CCN(Cc5ccccc5)CC4)C3)n2)c1	inconclusive: 3.16 µM [inhibitor, partial curve, poor fit]	
O=C(C1CCCC1)N1CCC(n2cc(-c3nc(-c4ccccc4)no3)nn2)CC1	inactive	
O=[S+]([O-])(Nc1ccccc1)c1ccc2c(c1)OCCN(Cc1cccnc1)C2	inconclusive: 11.2 µM [inhibitor, partial curve]	
O=C1CC(c2ccccc2)N(C(=O)CCc2ccccc2)CCCCCN1 (stereo not given)	inconclusive: 8.91 µM [inhibitor, single point]	
COCCN1CCN(C(=O)[C@@H]2Cc3cn(Cc4cc(C)on4)c4cccc(c34)[C@H](CC(C)C)N2)CC1	inconclusive: 12.6 µM [inhibitor, partial curve, poor fit]	
COCCN1C(=O)c2ccccc2C(C(=O)Nc2nc(C)cs2)C12CCCC2 (stereo not given)	inconclusive: 3.98 µM [inhibitor, full curve, poor fit]	
O=C(NC(c1ccccc1)c1ccccc1)c1cnc2c(c1)N(Cc1ccccc1)CCC2	inconclusive: 3.16 µM [inhibitor, single point]	
CNC(=O)N1CCCN(S(C)(=O)=O)C(c2ccccc2)CC(=O)NCC1 (stereo not given)	inactive	
CCN1C(=O)C2(CCN(C(=O)COC)CC2)c2ccccc21	inconclusive: 11.2 µM [inhibitor, partial curve, poor fit]	
CC1=C[C@@H](CNC(=O)C2CC2)[C@H](C(C)C)C[C@H]1CC(=O)NC1CCCC1	inconclusive: 3.98 µM [inhibitor, full curve, poor fit]	
CN1C(=O)C2(Cc3ccccc31)CN(C(=O)c1ccc(Cl)cc1)C2	inactive	
CC(=O)Nc1ccc(C2(C(=O)NCc3ccc(N(C)C)cc3)CCCCC2)cc1	inconclusive: 12.6 µM [inhibitor, partial curve]	
CCC[C@H]1CN(S(C)(=O)=O)C[C@@H]1NC(=O)CCc1cc(=O)[nH]o1	inactive	
Cc1nn(C)cc1CN(C)CC1(O)CCCN(Cc2cccc(F)c2F)C1=O (stereo not given)	inconclusive: 8.91 µM [inhibitor, single point]	
O=C(NCC1CN(C(=O)Cc2ccc(C(F)(F)F)cc2)CC12CN(c1ccccc1)C2)c1ccccc1 (stereo not given)	inactive	
CCCc1noc(-c2cn(C3CCN(C(=O)c4ccc5c(c4)OCO5)CC3)nn2)n1	inconclusive: 2.82 µM [inhibitor, full curve]	
COc1cccc(-n2c(SCC(=O)Nc3cc(C)ccc3C)nc3c(oc4ccccc43)c2=O)c1	inconclusive: 7.08 µM [inhibitor, partial curve, poor fit]	
CC(C)CNC(=O)N1CCC2(CC1)N(Cc1cccc(F)c1)C(=O)CS2=O (stereo not given)	inactive	
Cc1ccc(-c2nc3nc(C)cc(N4CCN(c5cc(Cl)ccc5C)CC4)n3n2)cc1		inconclusive: -141% [inhibitor] [at 5.79 µM]

Compound	Potency	activity, negative = inhibition
CC(C)(C)CC(=O)N1CC[C@H]2COC(=O)N2c2cc(F)ccc2C1	inactive	
O=C(NCCc1c[nH]c2ccccc12)c1cnc2c(c1)N(C(=O)CCc1ccccc1)CCC2	inconclusive: 20 µM [inhibitor, single point]	
Cc1cccc(CN2CCCC(O)(CNCC(C)(C)C)C2=O)c1 (stereo not given)	inconclusive: 12.6 µM [inhibitor, partial curve]	
CCOC(=O)c1oc2ccc(S(=O)(=O)n3nc(-c4ccccc4OC)cc3N)cc2c1C	inconclusive: 10 µM [inhibitor, single point]	
CCCN(CCC)CCCNC(=O)Cn1cnc2sc(C)c(S(=O)(=O)N3CCCCC3)c2c1=O	inconclusive: 0.501 µM [inhibitor, partial curve, poor fit]	
CN1CCCCCCN(Cc2cn(C)c3ccccc23)[C@H]2CCC[C@H]2C1=O	inconclusive: 3.16 µM [inhibitor, partial curve, poor fit]	
Cc1ccc(NC(=O)CN(c2ccccc2)S(=O)(=O)N(C)C)cc1Cl	inactive	
C#CC(C)(C)NS(=O)(=O)c1cc(-c2nnc(Nc3ccc(C)cc3)c3ccccc23)ccc1C	active: 5.01 µM	
Cc1cc(C)cc(C(=O)NC2CCN(c3cc(-c4ccc(F)cc4)[nH]n3)C2)c1 (stereo not given)	inconclusive: 2 µM [inhibitor, full curve]	
COCCCNC(=O)Cc1csc2nc(C)c(-c3cc(C)n(-c4ccccc4F)n3)c(=O)n12	inactive	
NC(=O)Cc1c[nH]c2ncc(-c3ccc4c(c3)OCO4)cc12	inactive	
CCc1ccc(-c2cn3c(n2)sc2cc(C(=O)NCCc4ccc(OC)cc4OC)ccc23)cc1	inconclusive: 17.8 µM [inhibitor, single point]	
CC(=O)c1cc(C(=O)NCc2c(C)ncc3c2CCNC3)[nH]n1	inactive	
COc1ccc(NC(=O)CCS(=O)(=O)c2nc(-c3cccs3)cc(C(F)(F)F)n2)cc1OC	inconclusive: 20 µM [inhibitor, single point]	
CCc1cccc(NC(=O)CSc2ncc3c(n2)-c2ccc(Cl)cc2N(Cc2ccccc2)S3(=O)=O)c1	inconclusive: 8.91 µM [inhibitor, partial curve, poor fit]	
CCc1c(C)sc2c1CCN(C(=O)Nc1cc(OC)c(OC)c(OC)c1)C2c1ccccc1 (stereo not given)	inconclusive: 17.8 µM [inhibitor, single point]	
O=C(c1n[nH]c2ccccc12)N1CCC2(CC1)CC(N1CCCC1)CCO2 (stereo not given)	inactive	
CNC(=O)[C@@H]1CN(C(=O)c2ccc(F)c(Cl)c2)C[C@H]1COC	inactive	
Cc1ccc(NC(=O)c2nn(C)c3c2CS(=O)(=O)c2ccccc2-3)c(Cl)c1	inactive	
Cc1ncoc1C(=O)N1CCCC(c2nc(-c3cccnc3)no2)CCNC(=O)CC1 (stereo not given)	inactive	
COc1ccc(CCNC(=O)CC(c2cccc3c2OCO3)c2c[nH]c3ccccc23)cc1OC (stereo not given)	inactive	
CCN(CC)Cc1cnc2c(C(=O)N3CCCC(CCCO)C3)cnn2c1 (stereo not given)	inactive	

Compound	Potency	activity, negative = inhibition
Cc1ccsc1C(=O)C1CCCN(Cc2cccc(F)c2)C1 (stereo not given)	inconclusive: 17.8 µM [inhibitor, single point]	
Cc1noc(C)c1[S+](=O)([O-])N1CCC(N2Cc3cccn3C2=O)CC1	inactive	
CC(C)CCNC(=O)c1ccc2c(c1)CC(=O)N2Cc1ccccc1	inconclusive: 1.78 µM [inhibitor, partial curve]	
COc1ccc(CCNC(=O)Cn2cc(C(=O)c3ccccc3)c(=O)c3ccc(C)nc32)cc1OC	inconclusive: 7.94 µM [inhibitor, partial curve, poor fit]	
CCOc1ccc(-n2c(-c3ccc(C)cc3)nc3c(cnn3-c3ccccc3)c2=O)cc1	inconclusive: 17.8 µM [inhibitor, single point]	
CC1=NS(=O)(=O)N(Cc2ccccc2)C=C1C(=O)OCc1noc(CC2CCCCC2)n1	inconclusive: 20 µM [inhibitor, single point]	
Cc1ccc(NC(=O)CCn2c(=O)c3cccn3c3ccccc32)c(Cl)c1	inconclusive: 11.2 µM [inhibitor, single point]	
COc1ccc(CCNC(=O)CCc2c(C)nc3c(c(C)nn3-c3ccc(C)c(C)c3)c2C)c(OC)c1OC	inconclusive: 3.98 µM [inhibitor, single point]	
Cc1ccc(CN2CCCOCCNC(=O)CC2)s1	inconclusive: 20 µM [inhibitor, single point]	
CCCNC(=O)C1CCC(Cn2c(=O)c3sccc3n(Cc3cccc(OC)c3)c2=O)CC1 (stereo not given)	inconclusive: 11.2 µM [inhibitor, single point]	
CCn1nnc2cc(C(=O)Nc3cccc(Cl)c3)ccc21	inconclusive: 20 µM [inhibitor, single point]	
O=S(=O)(c1ccc(Br)cc1)c1nc(-c2ccco2)oc1SCc1ccccc1Cl	inconclusive: 17.8 µM [inhibitor, single point]	
O=C1CC(c2ccccc2)N(C(=O)CNC(=O)Nc2ccccc2)CCCCCN1 (stereo not given)	inconclusive: 3.98 µM [inhibitor, partial curve, poor fit]	
Cc1cccc([S+](=O)([O-])N2CCC3(CC2)OCCN(Cc2ccccc2)C3=O)c1	inconclusive: 11.2 µM [inhibitor, partial curve, poor fit]	
COc1ccc2c(c1)c1c(c(=O)n(-c3ccc(OC)c(OC)c3)c(=O)n1Cc1ccccc1C)n2C	inactive	
Cc1ccc(-n2ncc(C(=O)NCCN3CCN(C)CC3)c2C2CCN(C(=O)OC(C)(C)C)CC2)c(C)c1	inconclusive: 11.2 µM [inhibitor, single point]	
Cc1c(Cl)cccc1NS(=O)(=O)c1ccc2[nH]cc(C(=O)NC3CCCC3)c(=O)c2c1	inconclusive: 11.2 µM [inhibitor, single point]	
CCn1nccc1C(=O)N1C[C@@H](Oc2ccccc2)C[C@H]1C(=O)N1CCCC1	inactive	
Cc1cc(C)c(Cn2c3ccccc3c3cnn(CC(=O)N4CCCCC4)c(=O)c32)c(C)c1	inconclusive: 7.94 µM [inhibitor, partial curve, poor fit]	
COc1ccccc1-n1cc(C(=O)NC(C(=O)O)c2c(C)n[nH]c2C)cn1 (stereo not given)	inactive	
O=C(Nc1cccc(C(F)(F)F)c1)N[C@H]1CO[C@H]2[C@@H]1OC[C@@H]2Nc1nccc(C2CCCC2)n1	inactive	
